Experimental data reported in the supplement of paper PMC12217912.
The other results are listed elsewhere or left out. The full chains were built here from the parent and the listed change. Inactive controls read about 0.05.

B1: TEV protease; numbered along this chain (parent)
chain: MGESLFKGPRDYNPISSSICHLTNESDGHTTSLYGIGFGPFIITNKHLFRRNNGTLVVQSLHGVFKVKDTTTLQQHLVDGRDMIIIRMPKDFPPFPQKLKFREPQREERICLVTTNFQTKSMSSMVSDTSCTFPSGDGIFWKHWIQTKDGQCGSPLVSTRDGFIVGIHSASNFTNTNNYFTSVPKNFMELLTNQEAQQWVSGWRLNADSVLWGGHKVFMVKPEEPFQPVKEATQL

Variants of: B1
Test: raw area under fraction-flipped curve 0-4 h after induction (AUC4h, not background-subtracted), DNA-recorder readout of cleavage of the substrate (dimensionless); higher = more cleavage of the substrate by the protease variant
Conditions: temperature: 34 °C; time window: 0-4 h after rhamnose induction
Protocol: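 In vivo DNA recorder in E. coli TOP10(DE3) ΔrhaA at 34 °C. Each TEVp single-site mutant (parent TEVp 0) is paired with a single-site variant of the 7-mer TEVs (canonical ENLYFQ|S). The substrate sits between flexible linkers in a Bxb1-sfGFP-TEVs-SsrA fusion, so cleavage stabilises Bxb1 and speeds flipping of a recombination array, read by NGS. The value is the raw area under the fraction-flipped curve over 0-4 h after rhamnose induction (AUC4h), with ≥20 reads per time point. It is not background-subtracted; inactive controls average about 0.047.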
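Further: Bxb1 expression induced with 0.2% (w/v) L-rhamnose at OD600 near 0.5, cultures sampled hourly, flipped fraction per protease–substrate barcode pair counted by paired-end Illumina sequencing.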

Row | Variant | area with substrate ENLAFQS | area with substrate ENLCFQS | area with substrate ENLDFQS | area with substrate ENLEFQS | area with substrate ENLFFQS | area with substrate ENLHFQS | area with substrate ENLKFQS | area with substrate ENLLFQS | area with substrate ENLNFQS | area with substrate ENLPFQS | area with substrate ENLQFQS | area with substrate ENLRFQS | area with substrate ENLSFQS | area with substrate ENLTFQS | area with substrate ENLWFQS | area with substrate ENLIFQS | area with substrate ENLVFQS | area with substrate ENLGFQS | area with substrate ENLMFQS
1 | MDESLFKGPRDYNPISSSICHLTNESDGHTTSLYGIGFGPFIITNKHLFRRNNGTLVVQSLHGVFKVKDTTTLQQHLVDGRDMIIIRMPKDFPPFPQKLKFREPQREERICLVTTNFQTKSMSSMVSDTSCTFPSGDGIFWKHWIQTKDGQCGSPLVSTRDGFIVGIHSASNFTNTNNYFTSVPKNFMELLTNQEAQQWVSGWRLNADSVLWGGHKVFMVKPEEPFQPVKEATQL [G2D] | 0.0769 | 0.0741 | 0.0578 | 0.0567 | 0.0736 | 0.0673 | 0.0787 | 0.0719 | 0.0476 | 0.057 | 0.0735 | 0.0751 | 0.0808 | 0.0589 | 0.0916 | – | – | – | –
2 | MGEWLFKGPRDYNPISSSICHLTNESDGHTTSLYGIGFGPFIITNKHLFRRNNGTLVVQSLHGVFKVKDTTTLQQHLVDGRDMIIIRMPKDFPPFPQKLKFREPQREERICLVTTNFQTKSMSSMVSDTSCTFPSGDGIFWKHWIQTKDGQCGSPLVSTRDGFIVGIHSASNFTNTNNYFTSVPKNFMELLTNQEAQQWVSGWRLNADSVLWGGHKVFMVKPEEPFQPVKEATQL [S4W] | 0.0609 | – | 0.0513 | – | 0.0496 | 0.0678 | 0.0691 | 0.0634 | 0.0617 | 0.0745 | – | 0.0554 | 0.0538 | 0.0458 | – | 0.0932 | – | – | –
3 | MGESLVKGPRDYNPISSSICHLTNESDGHTTSLYGIGFGPFIITNKHLFRRNNGTLVVQSLHGVFKVKDTTTLQQHLVDGRDMIIIRMPKDFPPFPQKLKFREPQREERICLVTTNFQTKSMSSMVSDTSCTFPSGDGIFWKHWIQTKDGQCGSPLVSTRDGFIVGIHSASNFTNTNNYFTSVPKNFMELLTNQEAQQWVSGWRLNADSVLWGGHKVFMVKPEEPFQPVKEATQL [F6V] | 0.0846 | 0.0854 | 0.0667 | 0.0522 | 0.0962 | 0.105 | – | – | 0.0627 | – | – | – | 0.0694 | – | 0.0843 | – | 0.0982 | – | –
4 | MGESLYKGPRDYNPISSSICHLTNESDGHTTSLYGIGFGPFIITNKHLFRRNNGTLVVQSLHGVFKVKDTTTLQQHLVDGRDMIIIRMPKDFPPFPQKLKFREPQREERICLVTTNFQTKSMSSMVSDTSCTFPSGDGIFWKHWIQTKDGQCGSPLVSTRDGFIVGIHSASNFTNTNNYFTSVPKNFMELLTNQEAQQWVSGWRLNADSVLWGGHKVFMVKPEEPFQPVKEATQL [F6Y] | 0.0704 | 0.0546 | 0.0705 | 0.0597 | – | 0.0659 | 0.0733 | 0.0707 | 0.0786 | – | – | – | 0.0562 | – | – | – | – | 0.0693 | –
5 | MGESLFKGYRDYNPISSSICHLTNESDGHTTSLYGIGFGPFIITNKHLFRRNNGTLVVQSLHGVFKVKDTTTLQQHLVDGRDMIIIRMPKDFPPFPQKLKFREPQREERICLVTTNFQTKSMSSMVSDTSCTFPSGDGIFWKHWIQTKDGQCGSPLVSTRDGFIVGIHSASNFTNTNNYFTSVPKNFMELLTNQEAQQWVSGWRLNADSVLWGGHKVFMVKPEEPFQPVKEATQL [P9Y] | 0.0954 | – | 0.0605 | 0.0771 | 0.0903 | – | 0.0752 | 0.0759 | 0.0551 | – | 0.0772 | – | 0.059 | – | – | 0.0042 | 0.111 | 0.0859 | –
6 | MGESLFKGPEDYNPISSSICHLTNESDGHTTSLYGIGFGPFIITNKHLFRRNNGTLVVQSLHGVFKVKDTTTLQQHLVDGRDMIIIRMPKDFPPFPQKLKFREPQREERICLVTTNFQTKSMSSMVSDTSCTFPSGDGIFWKHWIQTKDGQCGSPLVSTRDGFIVGIHSASNFTNTNNYFTSVPKNFMELLTNQEAQQWVSGWRLNADSVLWGGHKVFMVKPEEPFQPVKEATQL [R10E] | 0.0911 | 0.0552 | 0.063 | 0.0746 | – | 0.0633 | 0.0714 | 0.0663 | 0.0638 | 0.0699 | 0.0671 | 0.0791 | 0.0556 | 0.0698 | – | 0.0634 | – | – | –
7 | MGESLFKGPQDYNPISSSICHLTNESDGHTTSLYGIGFGPFIITNKHLFRRNNGTLVVQSLHGVFKVKDTTTLQQHLVDGRDMIIIRMPKDFPPFPQKLKFREPQREERICLVTTNFQTKSMSSMVSDTSCTFPSGDGIFWKHWIQTKDGQCGSPLVSTRDGFIVGIHSASNFTNTNNYFTSVPKNFMELLTNQEAQQWVSGWRLNADSVLWGGHKVFMVKPEEPFQPVKEATQL [R10Q] | 0.0779 | 0.082 | 0.0472 | 0.0728 | 0.0883 | 0.0837 | 0.0759 | – | 0.0688 | 0.0597 | 0.0726 | 0.0759 | 0.0642 | – | 0.0712 | 0.0802 | 0.0906 | 0.0523 | –
8 | MGESLFKGPRNYNPISSSICHLTNESDGHTTSLYGIGFGPFIITNKHLFRRNNGTLVVQSLHGVFKVKDTTTLQQHLVDGRDMIIIRMPKDFPPFPQKLKFREPQREERICLVTTNFQTKSMSSMVSDTSCTFPSGDGIFWKHWIQTKDGQCGSPLVSTRDGFIVGIHSASNFTNTNNYFTSVPKNFMELLTNQEAQQWVSGWRLNADSVLWGGHKVFMVKPEEPFQPVKEATQL [D11N] | 0.0683 | 0.0673 | 0.0692 | 0.0538 | 0.0745 | 0.0719 | 0.0812 | – | 0.0713 | 0.0727 | 0.0694 | – | 0.0746 | – | 0.0756 | – | – | – | 0.0728
9 | MGESLFKGPRYYNPISSSICHLTNESDGHTTSLYGIGFGPFIITNKHLFRRNNGTLVVQSLHGVFKVKDTTTLQQHLVDGRDMIIIRMPKDFPPFPQKLKFREPQREERICLVTTNFQTKSMSSMVSDTSCTFPSGDGIFWKHWIQTKDGQCGSPLVSTRDGFIVGIHSASNFTNTNNYFTSVPKNFMELLTNQEAQQWVSGWRLNADSVLWGGHKVFMVKPEEPFQPVKEATQL [D11Y] | 0.0684 | 0.0743 | 0.0601 | 0.0713 | 0.0887 | 0.0629 | 0.0781 | 0.0819 | 0.0671 | 0.0608 | 0.0613 | – | 0.065 | 0.0675 | 0.059 | 0.085 | 0.0781 | 0.0697 | –
